Experimental data as given in the supplement of paper PMC7826260.
Some of the results follow. The data describe in vitro nicking of single-stranded DNA by Rep domains at 3 µM enzyme and 37 °C for 1 h; the strands have 90 letters, of which the middle is given. Uncut reads are compared with the no-enzyme pool on a log2 scale; more negative means more cut, near 0 not cut, and no call is made. Reads are scaled to the total; where an enzyme cuts many sequences, the uncut ones exceed 0.

Legend:
Experiment in all cases: uncleaved DNA left, log2 of reads against the no-enzyme library (log2 ratio); higher = less cleavage (more negative = more Rep cleavage of the k-mer); sequences stand for … in CTCGTCCG…ACCGGAGA
[1] = system: T1, Rep nickase domain of Muscovy duck circovirus
T1 sequence (Rep 1-111, printed without the tag): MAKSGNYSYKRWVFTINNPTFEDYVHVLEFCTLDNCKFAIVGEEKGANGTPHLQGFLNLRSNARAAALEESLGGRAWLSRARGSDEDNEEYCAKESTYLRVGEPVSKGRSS
Procedure: (§1)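 A pool of 90-nt single-stranded DNAs with seven random bases just before the constant AC of the nick site (name = the seven bases) was cut by 3 µM recombinant His6-SUMO-tagged Rep nickase domain (300 nM DNA, 50 mM HEPES pH 8.0, 50 mM NaCl, 1 mM MnCl2, 1 h, 37 °C, three replicates). Uncut DNA was amplified and sequenced.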

[2] = system: T2, Rep nickase domain of banana bunchy top virus
T2 sequence (Rep 1-94, printed without the tag): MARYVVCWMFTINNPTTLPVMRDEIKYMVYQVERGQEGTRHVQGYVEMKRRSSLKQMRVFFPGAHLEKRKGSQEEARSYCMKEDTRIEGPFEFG
Procedure: as §1

[3] = system: T3, Rep nickase domain of cabbage leaf curl virus
T3 sequence (Rep 1-116, printed without the tag): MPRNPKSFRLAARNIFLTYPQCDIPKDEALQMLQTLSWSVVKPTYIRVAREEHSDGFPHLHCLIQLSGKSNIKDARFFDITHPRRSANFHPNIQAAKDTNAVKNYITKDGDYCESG
Procedure: as §1

[4] = system: T4, Rep nickase domain of chickpea chlorotic dwarf virus
T4 sequence (Rep 1-124, printed without the tag): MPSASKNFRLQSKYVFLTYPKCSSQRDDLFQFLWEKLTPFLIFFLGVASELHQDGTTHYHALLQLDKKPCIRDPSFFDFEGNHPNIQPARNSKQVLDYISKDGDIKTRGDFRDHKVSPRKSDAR
Procedure: as §1

[5] = system: T5, Rep nickase domain of faba bean necrotic yellows virus
T5 sequence (Rep 1-98, printed without the tag): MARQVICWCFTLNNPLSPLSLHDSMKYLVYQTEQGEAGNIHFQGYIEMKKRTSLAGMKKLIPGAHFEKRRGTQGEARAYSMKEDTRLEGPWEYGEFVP
Procedure: as §1

[6] = system: T6, Rep nickase domain of maize striate mosaic virus
T6 sequence (Rep 1-117, printed without the tag): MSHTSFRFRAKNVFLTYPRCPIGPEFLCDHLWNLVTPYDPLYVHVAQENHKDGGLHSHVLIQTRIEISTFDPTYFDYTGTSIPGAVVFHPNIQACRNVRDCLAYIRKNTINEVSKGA
Procedure: as §1

[7] = system: T7, Rep nickase domain of porcine circovirus 2
T7 sequence (Rep 2-116, printed without the tag): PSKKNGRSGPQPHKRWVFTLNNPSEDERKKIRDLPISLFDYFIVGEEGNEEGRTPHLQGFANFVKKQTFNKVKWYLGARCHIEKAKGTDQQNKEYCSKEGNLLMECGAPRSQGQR
Procedure: as §1

[8] = system: T8, Rep nickase domain of tomato yellow leaf curl virus
T8 sequence (Rep 1-136, printed without the tag): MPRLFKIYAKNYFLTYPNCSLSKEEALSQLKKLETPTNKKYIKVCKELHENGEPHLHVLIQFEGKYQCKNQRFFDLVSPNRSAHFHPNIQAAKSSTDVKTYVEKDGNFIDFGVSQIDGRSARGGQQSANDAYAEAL
Procedure: as §1

[9] = system: T9, Rep nickase domain of wheat dwarf virus
T9 sequence (Rep 1-137, printed without the tag): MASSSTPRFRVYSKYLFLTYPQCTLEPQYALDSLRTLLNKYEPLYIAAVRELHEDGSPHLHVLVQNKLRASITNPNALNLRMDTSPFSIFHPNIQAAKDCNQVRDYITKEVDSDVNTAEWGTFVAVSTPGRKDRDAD
Procedure: as §1

Sequence	uncleaved DNA left (log2) [1]	uncleaved DNA left (log2) [2]	uncleaved DNA left (log2) [3]	uncleaved DNA left (log2) [4]	uncleaved DNA left (log2) [5]	uncleaved DNA left (log2) [6]	uncleaved DNA left (log2) [7]	uncleaved DNA left (log2) [8]	uncleaved DNA left (log2) [9]
TATGGCT	-0.188	-0.122	-0.846	-1.8	-0.0957	-0.847	-0.164	-0.192	-0.356
AACCGGC	-0.0625	-0.12	-0.162	-0.262	-0.0647	-0.794	-0.0424	-0.12	-0.178
CCTCACG	-0.0821	0.0321	-0.806	-0.188	0.0151	-1	-0.0324	-0.0712	-0.186
AACCCGC	-0.119	-0.195	0.024	0.433	-0.144	-0.617	-0.256	-0.172	-0.148
GTTCCCT	0.148	0.0871	0.328	0.68	0.0236	1.66	-1.05	0.0137	0.207
CTGCTCC	-0.0931	0.0185	-0.000325	0.203	0.0859	0.156	0.0884	-0.0326	-0.00331
AGCATCG	0.0838	0.0803	-0.535	-0.474	0.0378	-1.06	0.261	0.058	0.00585
CCTAATA	-0.26	-0.0928	-0.367	-1.54	-0.162	-0.981	-0.266	-0.0994	-0.251
GCGCCGG	0.0363	0.0598	0.209	0.73	-0.154	1.3	0.104	-0.195	-0.00982
ATCACAT	0.071	0.0433	0.0945	0.0271	0.0583	-0.307	0.136	0.0613	0.168
CTGTTCC	-0.126	-0.126	0.0232	0.0697	-0.274	-0.0382	-0.12	-0.135	-0.0322
CTAAAAT	-0.0621	-0.133	-0.0371	-1.03	-0.215	-0.605	-0.139	-0.0896	-0.0238
ATCAAAG	0.052	0.0382	-0.791	-0.21	0.0285	-1.16	0.407	0.118	0.00679
GTTCGTT	0.0436	-0.0589	0.231	0.688	0.015	1.44	-0.0526	-0.0128	0.00565
ATACATA	0.0168	0.0454	-0.145	-1.08	0.0484	-0.463	-0.0358	0.0726	0.0944
TTCACAG	-0.0421	-0.0726	-0.586	-1.52	-0.187	-1.11	0.176	-0.0289	-0.0415
GTCGCCT	0.0825	-0.0622	0.36	0.497	0.116	1.36	0.0874	-0.0167	-0.000849
GCTCGGC	-0.126	-0.0971	0.0224	0.368	-0.157	-0.258	-0.1	-0.0813	-0.104
GATCGTA	-0.0354	-0.159	0.00511	0.0116	-0.168	0.3	-0.0957	-0.11	-0.0748
ATTCTCT	-0.451	-0.108	0.00938	-2.01	0.102	-0.504	-1.24	0.0626	0.0649
TTCCTAC	-0.118	-0.156	0.028	-1.61	0.0466	-0.233	-0.168	0.0122	-0.00417
AGTTCTG	-0.0454	0.0117	0.00437	0.595	-0.126	1.27	0.0093	-0.0871	-0.0163
CTCCCTA	-0.086	-0.0679	0.0132	-0.82	-0.0765	-0.42	-0.2	0.211	0.065
CTAGAAT	0.0294	-0.0811	0.0801	-0.00996	-0.161	0.373	-0.298	-0.0416	-0.117
ATCCATA	0.0671	0.109	-0.2	-1.07	0.0422	-0.928	-0.147	0.115	0.0289
AGGCAAC	0.117	0.0244	0.235	0.145	0.0463	0.369	0.0869	0.148	0.0548
ATTACGT	-0.0802	0.0247	0.107	-0.749	0.113	-0.42	-1.78	0.103	-0.0313
TCAGGTG	0.141	-0.000714	-0.256	-0.228	0.0315	-0.659	0.0671	0.0299	0.052
TAGTTAC	0.0345	0.0215	0.114	-1.59	-0.0158	-0.233	-2.52	0.107	0.0505
GCAATGG	0.0893	0.0458	0.116	0.99	0.0195	0.556	0.115	-0.00573	-0.0221
